{"source": "paper PMC12040169", "about": "(PLOS Biology, 2025)", "note": "The other results are listed elsewhere or left out.", "data": [{"system": "T1, C. trachomatis L2/434/Bu expressing GFP (CTL2-GFP)", "T1 construct": "L2/434/Bu GFP intracellular growth in HeLa cells", "set-up": "species or system HeLa; C. trachomatis total inclusion area by high-content imaging, normalised to DMSO", "conditions": "total inclusion area; 28.5 h, 10 µM; inhibitor", "summary_of_the_method": "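High-content images of fixed, Hoechst-stained infected cultures supply inclusion area and count (growth) plus nuclei number (viability), complementing bulk GFP/resorufin fluorescence. MIC determination is unchanged from the primary assay.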", "values": [{"smiles": "CCN1CC2(CCNCC2)c2ccccc21", "note": "[CBK116520]", "% of control remaining": 112.544}, {"smiles": "CN(C)CC(O)c1cc2n(n1)CCCN(CC(=O)NCc1cccs1)C2", "note": "(centres unmarked) [CBK306738]", "% of control remaining": 102.16}, {"smiles": "CCc1nn(CC(=O)N(C)C)c(=O)c2cc3oc(C)cc3n12", "note": "[CBK283576]", "% of control remaining": 115.374}, {"smiles": "CNC(=O)Nc1ccccc1NC(=O)NC", "note": "[CBK261401]", "% of control remaining": 105.116}, {"smiles": "O=C1NC(=O)C(CC(=O)N2CCC3(CC2)CC(=O)c2cc(Cl)ccc2O3)N1", "note": "(centres unmarked) [CBK156485]", "% of control remaining": 82.1597}, {"smiles": "C=CCn1c(Cc2csc(NC(=O)c3cc(C)cc(C)c3)n2)n[nH]c1=S", "note": "[CBK295358]", "% of control remaining": 90.3807}, {"smiles": "CO[C@H]1CC[C@H](C(=O)NC(Cc2ccsc2)c2cccnc2)CC1", "note": "(some centres unmarked) [CBK285114]", "% of control remaining": 93.3056}, {"smiles": "Nc1nnc(SCC(=O)NCc2ccc3c(c2)OCO3)s1", "note": "[CBK267853]", "% of control remaining": 120.742}, {"smiles": "O=C(CCn1cnc2ccccc2c1=O)Nc1ccc(Cl)c(Cl)c1", "note": "[CBK266738]", "% of control remaining": 94.5923}, {"smiles": "O=C1c2ccccc2C(=O)N1CCCc1nn2c(-c3cccnc3)nnc2s1", "note": "[CBK270140]", "% of control remaining": 95.1879}, {"smiles": "CC(C)(C)OC(=O)NCc1ccc(-c2nnc(CC(=O)O)o2)cc1", "note": "[CBK169899D]", "% of control remaining": 110.287}, {"smiles": "Cc1ccc(C2SCC(C(=O)O)N2C(=O)c2cccc(Cl)c2)cc1", "note": "(centres unmarked) [CBK286931]", "% of control remaining": 132.012}, {"smiles": "CC(=O)NCCOc1nccnc1OCc1ccc(Cl)c(Cl)c1", "note": "[CBK161582]", "% of control remaining": 88.8492}, {"smiles": "COc1ccc(CNc2cncc(-c3ccc(C(C)C)cc3)n2)cc1", "note": "[CBK065514]", "% of control remaining": 108.304}, {"smiles": "CN(C)CCN(Cc1ccccc1)C(=O)NCc1ccc(Cl)cc1", "note": "[CBK155106]", "% of control remaining": 85.5992}, {"smiles": "CCOC(=O)c1[nH]c2ccccc2c1NC(=O)[C@@H]1CCCN1C", "note": "[CBK160171T]", "% of control remaining": 82.1032}, {"smiles": "Nc1nnc(Sc2ccc([N+](=O)[O-])c3nonc23)s1", "note": "[CBK266712]", "% of control remaining": 52.7351}, {"smiles": "O=C(NCCc1c[nH]cn1)NC1CCCCC1", "note": "[CBK269975]", "% of control remaining": 76.606}, {"smiles": "N#Cc1c(CN2CCCC(c3noc(C4CC4)n3)C2)cn2ccccc12", "note": "(centres unmarked) [CBK305332]", "% of control remaining": 23.1197}, {"smiles": "COc1ccccc1C(=O)NCC(=O)N/N=C/c1ccc(N(C)C)cc1", "note": "[CBK261989]", "% of control remaining": 88.7126}, {"smiles": "CN(C)c1nc(NCc2ccccc2)nc(SCC(=O)Nc2ccccc2)n1", "note": "[CBK268810]", "% of control remaining": 88.2622}, {"smiles": "COc1cc(OC)nc(CN2C(=O)C3(CC(=O)N(C)C3=O)c3cc(F)ccc32)n1", "note": "(centres unmarked) [CBK075475]", "% of control remaining": 94.3664}, {"smiles": "Cc1nccn1CCCNC(=O)c1ccc(N2CCCC2)cc1", "note": "[CBK281589]", "% of control remaining": 81.5477}]}]}
